Paper PMC4336329 (PLoS ONE, 2015)
Hit rate of the full screen: of about 310,000 compounds, about 2,200 (0.71%) showed an effect of 50% or more. Effects have a minus sign here. This is one part of the list.

biological target: human ether-à-go-go-related gene (hERG) potassium channel (human, UniProt Q12809); assay: primary screen, population patch clamp on CHO cells stably expressing hERG
Sequence (Q12809 whole entry, looked up): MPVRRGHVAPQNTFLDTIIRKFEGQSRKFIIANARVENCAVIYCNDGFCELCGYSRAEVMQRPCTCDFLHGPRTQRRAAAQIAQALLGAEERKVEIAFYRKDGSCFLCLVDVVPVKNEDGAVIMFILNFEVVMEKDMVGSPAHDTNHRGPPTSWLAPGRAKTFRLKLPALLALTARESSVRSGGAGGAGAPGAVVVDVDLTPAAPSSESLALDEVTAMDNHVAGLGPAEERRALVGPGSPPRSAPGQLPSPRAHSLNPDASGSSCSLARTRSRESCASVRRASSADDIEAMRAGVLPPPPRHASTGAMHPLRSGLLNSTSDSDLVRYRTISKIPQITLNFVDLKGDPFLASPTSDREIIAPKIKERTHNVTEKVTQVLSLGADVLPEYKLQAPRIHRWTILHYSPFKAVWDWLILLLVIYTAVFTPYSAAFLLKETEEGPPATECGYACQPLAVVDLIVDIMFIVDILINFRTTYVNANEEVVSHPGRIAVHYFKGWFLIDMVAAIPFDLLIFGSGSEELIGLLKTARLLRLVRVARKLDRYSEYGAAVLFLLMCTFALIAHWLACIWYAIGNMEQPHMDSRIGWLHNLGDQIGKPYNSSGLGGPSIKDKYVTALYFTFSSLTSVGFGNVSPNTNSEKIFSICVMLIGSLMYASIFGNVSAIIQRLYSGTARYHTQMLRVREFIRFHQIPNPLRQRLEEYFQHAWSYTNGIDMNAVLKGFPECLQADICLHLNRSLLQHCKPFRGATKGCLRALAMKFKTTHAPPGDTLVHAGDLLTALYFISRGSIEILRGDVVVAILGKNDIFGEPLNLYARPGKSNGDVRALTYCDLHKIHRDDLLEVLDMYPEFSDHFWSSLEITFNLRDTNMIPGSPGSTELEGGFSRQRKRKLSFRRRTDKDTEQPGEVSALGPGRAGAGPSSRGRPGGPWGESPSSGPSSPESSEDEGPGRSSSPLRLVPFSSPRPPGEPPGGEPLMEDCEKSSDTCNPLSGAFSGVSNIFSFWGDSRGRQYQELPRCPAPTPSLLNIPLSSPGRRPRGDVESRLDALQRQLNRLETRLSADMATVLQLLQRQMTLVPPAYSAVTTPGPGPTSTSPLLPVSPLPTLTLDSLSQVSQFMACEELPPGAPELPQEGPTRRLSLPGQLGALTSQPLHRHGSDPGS

In order of falling “hERG current change (%, negative = inhibition) at 1uM” value:
1. COc1cccc(CN2CCNC(=O)C2CC(=O)NC2CCOCC2)c1OC (centres unmarked)  20%
2. COc1cc(/C=C2\NC(=S)N(C)C2=O)ccc1O  19.7%
3. N#CCCN(C(=O)COC(=O)COc1ccccc1Cc1ccccc1)c1ccccc1  18.3%
4. CCOC(=O)c1nnsc1NC(=O)Nc1ccc(OC)cc1  17.8%
5. CCc1ccc(NC(=O)Nc2c(C)n(C)n(-c3ccccc3)c2=O)cc1  17.2%
6. CCOC(=O)CN(C(=O)CSc1nnc(COc2ccc(OC)cc2)n1C)c1ccccc1  15.7%
7. CCOCCCNC(=O)c1cn(CC)c2ccc(S(=O)(=O)N3CCOCC3)cc2c1=O  14.7%
8. Cc1cc(NC(=O)CSCC(=O)N(C)Cc2ccc(Cl)cc2Cl)no1  14.3%
9. COc1ccc(/C=N/n2c(-c3cc(C)[nH]n3)n[nH]c2=S)cc1OC  12.8%
10. CCCC(=O)Nc1cc(Cl)ccc1C  12.5%
11. CC(C)N(C)CCOC(=O)/C=C/c1ccccc1.Cl  12%
12. CN(C)/C=N/c1sc2c(c1C#N)CCCC2  11.9%
13. O=C(NNC(=S)NCc1ccccc1)c1ccc(Br)cc1  11.8%
14. Cn1cnnc1SCC(=O)c1c[nH]c2ccccc12  11.4%
15. Cc1cc(C)nc(SCc2ccc(C(=O)N/N=C/c3cccc(O)c3O)cc2)n1  10.8%
16. COc1ccc(OC)c2sc(NC(=O)c3ccc(S(=O)(=O)N4CCOCC4)cc3)nc12  10.7%
17. CCN1C(=O)[C@H]2[C@@H](c3ccc(C)cc3)N3C(=O)N(c4ccc(OC)cc4)C(=O)[C@@]3(Cc3ccc(Cl)cc3)[C@H]2C1=O  10.7%
18. CCOc1c2ccc(C(=O)NCc3ccc(OC)cc3)cc2nn1CCOC  10.4%
19. Cn1c(SCc2cccc(F)c2)nnc1-c1cnccn1  10.4%
20. O=C(Nc1ccnc(-c2ccncc2)n1)c1ccccc1Cl  10%
21. COc1ccc(C(=O)NC(=S)NCc2cccnc2)cc1[N+](=O)[O-]  9.75%
22. COc1ccc(S(=O)(=O)N(C)C)cc1NC(=O)CSc1ncccn1  9.6%
23. COc1ccc(/C=C(\NC(=O)c2cccs2)C(=O)N2CCOCC2)cc1OC  9.57%
24. COc1ccccc1N(CC(=O)Nc1ccccc1)S(=O)(=O)c1cccs1  8.95%
25. Cc1ccc(NC(=O)c2nc[nH]c2C(=O)NCc2ccccc2)cc1  8.32%
26. COc1ccc(-c2ccc(S(=O)(=O)N3CCOCC3)cc2)cc1  8.16%
27. Cc1ccc(C(=O)Nc2cccnc2N2CCN(C)CC2)cc1  7.96%
28. CN1C(=O)c2cccc3c(Cl)ccc(c23)C1=O  7.9%
29. O=C(/C=C/c1cccnc1)c1ccc([N+](=O)[O-])cc1  7.64%
30. O=S(=O)(NCc1ccccc1)c1ccc(-n2cccn2)cc1  7.51%
31. CCC(C)(C)n1nnnc1C(c1cccs1)N1CC=C(c2ccc(F)cc2)CC1 (centres unmarked)  7.1%
32. COC(=O)Cn1c2ccc(OC)cc2c2nc3ccccc3nc21  6.33%
33. CCOCC(=O)Nc1nnc(Cc2ccc(OC)c(OC)c2)s1  6.01%
34. CN(C)S(=O)(=O)c1ccc(NC(=O)C2CCCN(C(=O)c3ccc(Cl)cc3)C2)cc1 (centres unmarked)  5.91%
35. Cc1ccc2nc(COc3ccc(Cl)cc3)cc(=O)n2c1  4.06%
36. CN1CCN(CCOc2ccc(Cl)c(Cl)c2)CC1.O=C(O)C(=O)O  3.94%
37. Cn1ncc(Cl)c1C(=O)NCC1CCCO1 (centres unmarked)  3.38%
38. O=C(CN1CCN(S(=O)(=O)c2ccc(F)c(Cl)c2)CC1)N1CCc2ccccc21  2.34%
39. Cc1cc(OCC(=O)N2CCOCC2)ccc1[N+](=O)[O-]  1.71%
40. O=C(CN1CCN(S(=O)(=O)c2ccccc2F)CC1)NCC1(N2CCOCC2)CCCCC1  1.43%
41. CCOc1cc(N2CCOCC2)c(OCC)cc1NC(=O)COc1ncnc2ccccc12  1.42%
42. Cc1cccc2nc(Cn3c(=O)n(CCC(=O)NCc4ccco4)c(=O)c4sccc43)cc(=O)n12  1.37%
43. O=Cc1cn(CCC(=O)O)nc1-c1cc2ccccc2o1  0.996%
44. Cc1ccc(-c2nc3ccccc3c(=O)n2-c2ncccc2C)cc1  0.712%
45. Cc1ccc(C(=O)N2CCN(S(=O)(=O)c3ccc(C)cc3)CC2)cc1  -0.09%
46. Cc1ccc(CSc2nnc([C@@H]3CCCN3C(=O)OC(C)(C)C)o2)cc1  -0.783%
47. O=C(NCCN1CCOCC1)c1ccc(Cl)nc1Cl  -1.85%
48. CN1CCc2c(c(N3CCCCC3)nc3n[nH]c(N)c23)C1  -2.25%
49. COc1ccc(/C=N/NC(=O)C2CCN(c3ncc(C(F)(F)F)cc3Cl)CC2)cc1  -7.63%
50. CCOC(=O)C1(CCc2ccccc2)CCN(C(=O)c2occc2C)CC1  -9.67%
51. COc1ccc(CCNC(=O)C2CC(=O)N(c3ccc(Br)cc3)C2)cc1OC (centres unmarked)  -10.5%
52. O=C(COc1ccc2cc(Br)ccc2c1)N1CCCC1  -16.6%
53. C[C@]12CCC(=O)C=C1CCC1C2CC[C@@]2(C)C1CC[C@@]2(O)CC#N (some centres unmarked)  -25.8%
54. O=C(NC1CC(=O)N(c2ccc(Cl)cc2)C1)N1CCN(C(=O)c2ccco2)CC1 (centres unmarked)  -49.8%
55. CCN(CC)CCN(Cc1cc2ccc(C)cc2[nH]c1=O)C(=O)Nc1ccc(Cl)cc1  -78.4%
56. CCCn1c(=N)c(C(=O)NC2CCCC2)cc2c(=O)n3cccc(C)c3nc21  -84.1%
